Out of some 370,000 compounds screened, about 150 (0.041%) were called active. The shares of active, inactive and inconclusive entries below differ from those in the screen. The call rests on the fitted dose curve; in most records, active means well fitted inhibition curve with a large enough effect; inconclusive means small, poorly fitted or top-dose-only effect; inactive means flat fitted curve, though single readings scatter. No potency is given beside an inconclusive call; the fits are too rough.
Each molecule was assayed against Beta-lactamase (Escherichia coli (strain K12)) (UniProt P00811) (assay: qHTS Inhibitors of AmpC Beta-Lactamase (assay with detergent)). Details: AmpC hydrolysis of nitrocefin, absorbance 480 nm, 0.01% Triton; series mostly up to 114 µM.
In short: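 20 mM phosphate pH 7.0 + 0.01% (detergent screen) or 0.0001% Triton X-100; 5.3 nM AmpC reagent; cpd preinc 15 min RT; nitrocefin (800 uM stock) to start; A480 q20 s × 4 min; Activity was normalised to no-enzyme and no-compound control wells.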
Further: nearly all actives have a fitted effect of over 25% in size.
Potency means the concentration at half of the fitted maximal effect; tags describe the fitted curve by direction and shape.

Sequence of UniProt P00811 (P00811 whole entry, looked up): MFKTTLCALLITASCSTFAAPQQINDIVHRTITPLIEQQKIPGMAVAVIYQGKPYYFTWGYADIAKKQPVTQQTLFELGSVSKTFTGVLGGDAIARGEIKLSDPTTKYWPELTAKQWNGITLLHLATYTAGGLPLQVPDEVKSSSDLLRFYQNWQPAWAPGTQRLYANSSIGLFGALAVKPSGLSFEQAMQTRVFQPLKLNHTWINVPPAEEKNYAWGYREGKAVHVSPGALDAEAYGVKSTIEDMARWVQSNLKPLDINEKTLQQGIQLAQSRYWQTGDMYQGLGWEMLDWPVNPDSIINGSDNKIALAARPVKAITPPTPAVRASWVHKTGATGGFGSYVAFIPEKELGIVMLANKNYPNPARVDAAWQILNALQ

SMILES	Potency
COC(=O)c1ccc(C(=O)OCCCc2nc3ccc(N)cc3[nH]2)cc1	inconclusive [inhibitor, full curve, poor fit]
CN1/C(=C/c2cc[n+](C)c3ccccc23)C=Cc2ccccc21	inconclusive [inhibitor, partial curve]
Clc1ccc(Nc2ncnc3c2cnn3-c2ccccc2)cc1	inconclusive [inhibitor, partial curve]
COc1ccc(N2C(=O)N[C@@H](Cc3ccccc3)C2=O)cc1OC	inconclusive [inhibitor, partial curve]
O=C(CSc1nnc(NC(=O)c2ccccc2F)s1)NCc1ccco1	inactive
O=C(/C=C/c1ccccc1Cl)N1CCOCC1	inconclusive [inhibitor, full curve]
CCOC(=O)c1c(NC(=O)C2=COCCO2)sc2c1CCN(C(=O)OC)C2	inconclusive [inhibitor, full curve, poor fit]
CCCSc1nnc(NC(=O)Nc2ccccc2)s1	inconclusive [inhibitor, full curve, poor fit]
O=C(CN(Cc1cccs1)C(=O)CNC(=O)c1ccco1)NC1CCCCC1	inconclusive [inhibitor, partial curve, poor fit]
Cc1ccc(Nc2ncnc3c2nc2n3CCCC2)c(Br)c1	inactive
CCC1=NNC(=O)C(CC(=O)Nc2ccccc2)c2cc(OC)c(OC)cc21 (centres undefined)	inconclusive [inhibitor, partial curve, poor fit]
COc1ccc(N2CCN(CC(O)COc3cc(C)ccc3C)CC2)cc1 (centres undefined)	inactive
NC(=O)C1CCN(C(c2ccccc2Cl)c2nnnn2Cc2ccc3c(c2)OCO3)CC1 (centres undefined)	inconclusive [inhibitor, full curve]
CCOc1ccccc1NC(=O)c1cc(C(=O)c2cc(OC)ccc2O)coc1=N	inconclusive [inhibitor, full curve, poor fit]
O=C1c2ccccc2C(=Nc2ccccc2)C1c1cccc(Br)c1 (centres undefined)	inactive
CCCn1c(SCC(=O)N2CCCCC2)nnc1C(C)C	inactive
CCc1cccc(C)c1NC(=O)C1=C(C)C(=O)OC12CCC(C)CC2 (centres undefined)	inactive
COC(=O)/C=C/CSC1=N/C(=C/c2ccc(-n3cncn3)cc2)C(=O)N1	inconclusive [inhibitor, partial curve]
N=C(N)SCc1ccccn1	inactive
O=c1[nH]nc(CNc2ccc(OC(F)(F)F)cc2)c2ccccc12	inconclusive [inhibitor, full curve, poor fit]
CCOC(=O)CSc1nc2ccccc2n1C(=O)OCC	inconclusive [inhibitor, single point]
Cc1nnc(SCc2cnc(-c3ccccc3)o2)[nH]c1=O	inconclusive [inhibitor, full curve, poor fit]

SMILES	Potency
CCOc1ncccc1C(=O)OCC(=O)c1ccc(Cl)s1	inconclusive [inhibitor, partial curve, poor fit]
CNC(=S)N/N=C/c1c(C)nn(-c2ccc(F)cc2)c1Cl	inactive
CC1CCN(S(=O)(=O)c2ccc(NC(=O)[C@@H]3CCCN3C(=O)c3cccs3)cc2)CC1	inconclusive [inhibitor, full curve, poor fit]
Cc1ccc(C)c(S(=O)(=O)N2CCN(C(=O)CCNS(=O)(=O)c3ccccc3)CC2)c1	inconclusive [inhibitor, full curve]
Cc1ccc2c(COC(=O)CNC(=O)c3ccccc3)cc(=O)oc2c1	inactive
CC(=O)c1cccc(NC(=S)NC(=O)c2ccc(C)cc2)c1	inconclusive [inhibitor, single point]
COc1ccc(-c2c[n+]3c(n2-c2c(C)n(C)n(-c4ccccc4)c2=O)CCCCC3)cc1	inactive
CCCCCCC(C)(C)c1ccc([C@@H]2C[C@H](O)CC[C@H]2CCCO)c(O)c1	inconclusive [inhibitor, full curve, poor fit]
O=C(CCc1c[nH]c2ccccc12)N1CCN(c2ccc(F)cc2)CC1	inconclusive [inhibitor, full curve, poor fit]
O=C(/C=C/c1cccc(F)c1)Nc1nccs1	inactive
CCc1cc(C(N)=O)c(NC(=O)c2ccc(OC)cc2)s1	inconclusive [inhibitor, partial curve, poor fit]
COC(=O)[C@@]1(Cc2ccc(F)cc2)[C@H]2c3cc(C(=O)N(C)C)n(Cc4ccccn4)c3C[C@H]2CN1C(=O)c1ccccc1	inconclusive [inhibitor, full curve]
C#CCOCCOCCOCCNc1nc(N2CCN(C(=O)Cn3cc(CC(C)O)nn3)CC2)nc(N2CCN(C(=O)[C@H]([C@@H](C)CC)n3cc(CCCN=C(N)N)nn3)CC2)n1 (some centres undefined)	inactive
COCc1cc(C)nc(OCC(=O)N/N=C/c2cc(C)n(-c3c(C)cccc3C)c2C)c1C#N	inconclusive [inhibitor, single point]
CCOc1ccc(NS(=O)(=O)c2ccc(C(=O)NCCN3CCOCC3)cc2)cc1	inactive
CC(C)c1ccccc1NC(=O)c1ccc2ncsc2c1	inconclusive [inhibitor, partial curve, poor fit]
COCCNC(=O)CSc1ncnc2sccc12	inconclusive [inhibitor, full curve]
O=C(Cn1nc(Cl)nc1Cl)c1ccc2c(c1)OCCO2	inconclusive [inhibitor, partial curve, poor fit]
Cc1ccc(C)c(OCCC(=O)OCC(=O)c2c(N)n(C)c(=O)n(C)c2=O)c1	inactive
CCOc1cc(C(=O)NN=C2CCCC2)cc(OCC)c1OCC	inconclusive [inhibitor, full curve]
O=C(C1CC1)N1CCN(c2nc3c(F)cc(F)cc3s2)CC1	inactive
Cc1nc(C#N)c(N/N=C/c2c(F)cccc2Cl)o1	inactive
